This passage reports self-cleavage results from the RNAGym collection of RNA variant scans (doi:10.1093/nar/gkz1192).

Read counts are not given, so values of variants with three or more changes are uncertain.

To fix the notation:
B1: CPEB3 Ribozyme (parent)
chain: UAACAGGGGGCCACAGCAGAAGCGUUCACGUCGCAGCCCCUGUCAGAUUCUGGUGAAUCUGCGAAUUCUGCUGUAUAUCUC

The variants in this data set derive from B1. In words: self-cleavage, relative activity (ratio to wild type); higher = more cleavage; in vitro, sequencing. The procedure, abridged:
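For each CPEB3 ribozyme variant, relative activity is its cleaved/total read fraction divided by the unmutated ribozyme's. Barcoded error-prone PCR libraries were transcribed by T7 RNA polymerase (5 hours, 37°C) and held in DNase I for 15 min before an EDTA stop, with cleavage occurring throughout. Template-switching reverse transcription and Illumina sequencing were used to read the RNAs. A 5-read minimum applied, and results are the mean of three batches.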
Consider UAACAGGGGGCCACAGCAGAAGCGUUCACGUCGCAGCCCCUGUCAGCUUCUGGUAAAUCUGCGAAUUCUGCCGUAUAUCUC [A47C G55A U72C], for which the self-cleavage turned out to be 0.16.
As for UAACAGGGGGCCACAGCAGAAGCGUUCACGUCGCAGCCCCUGUCUGAUUCUGGUGAAUCUGCGAACUCUGCUGUGUAUCUC [A45U U66C A75G], the self-cleavage stood at 0.15.
With UAACAGGGGGCCACAGCAGAAGCGUUCACGUCGCAGCCCCUGUCAAAUUCUGGUGAGUCUGCGAAUUCUGCUGUUUACCUC [G46A A57G A75U U78C] the figure was 0.13.
As to UAACAGGGGGCCACAGCAGAAGCGUUCACGUCGCAGCCCCUGUCUGAUUCCGGUGAAUCUGCGAAUUCUGCUGUACAUCUC [A45U U51C U76C], the self-cleavage was found to be 0.31.
With UAACAGGGGGCCACAGCAGAAGCGUUCACGUCGCAGCCCCUGUCUGAUUCUGGUGAAACUGCGAAUUCAGCUGUAUAUCUC [A45U U58A U69A] the figure was 0.07; with UAACAGGGGGCCACAGCAGAAGCGUUCACGUCGCAGCCCCUGUCACAUACUGGUGAAUCAGCGAAUUCUGCUGUAAAUCUC [G46C U49A U60A U76A], 0.14; with UAACAGGGGGCCACAGCAGAAGCGUUCACGUCGCAGCCCCUGUCAUAUUCUGGUGAAUCUGCGAAAUCUGCUGUAUGUCUC [G46U U66A A77G], 0.11.
In the case of UAACAGGGGGCCACAGCAGAAGCGUUCACGUCGCAGCCCCUGUCAGGUUCUGGUGUAUCUGCGGAUUCUGCUGUAUACCUC [A47G A56U A64G U78C], the self-cleavage was found to be 0.21.
With UAACAGGGGGCCACAGCAGAAGCGUUCACGUCGCAGCCCCUGUCACAUUCUGGUGAGUCUGCGAAUUCUGCUGUUUACCUC [G46C A57G A75U U78C] the figure was 0.07.
The same measure for UAACAGGGGGCCACAGCAGAAGCGUUCACGUCGCAGCCCCUGUCAAAUUCUGGUGUAUCUGCGAAUUCUGCUGUGUAUCUC [G46A A56U A75G]: 0.01; for UAACAGGGGGCCACAGCAGAAGCGUUCACGUCGCAGCCCCUGUCAAGUUCUGGCGAAUCUGCGUAUUCUGCUGUAUAUCUC [G46A A47G U54C A64U]: 0.21.
The same measure for UAACAGGGGGCCACAGCAGAAGCGUUCACGUCGCAGCCCCUGUCUGAUUCUGGUGAAUCCGCGAAUCCUGCUGUAUAUCUC [A45U U60C U67C]: 0.11; for UAACAGGGGGCCACAGCAGAAGCGUUCACGUCGCAGCCCCUGUCUGAUUCUGGCUAAUCUGCGAAUUCUGCUGUAUAUCUC [A45U U54C G55U]: 0.15.
With UAACAGGGGGCCACAGCAGAAGCGUUCACGUCGCAGCCCCUGUCUGAUUCUGGUGAAUCAGCGUAUUCUGCUGUAAAUCUC [A45U U60A A64U U76A], the self-cleavage was 0.3.
The same measure for UAACAGGGGGCCACAGCAGAAGCGUUCACGUCGCAGCCCCUGUCUGAGUCAGGUGAAUCUGCGAAUUCUGCUGUAUAUCUC [A45U U48G U51A]: 0.11.
With UAACAGGGGGCCACAGCAGAAGCGUUCACGUCGCAGCCCCUGUCAGGUUCUGGUGGAUCCGCGAAUUCUGCUGUAUAUCAC [A47G A56G U60C U80A] the figure was 0.54.
With UAACAGGGGGCCACAGCAGAAGCGUUCACGUCGCAGCCCCUGUCUGAUUCGGGUGAACCUGCGAAUUCUGCUGUAUAUCUC [A45U U51G U58C] the figure was 0.16; with UAACAGGGGGCCACAGCAGAAGCGUUCACGUCGCAGCCCCUGUCUGAUUCAGGCGGAUCUGCGAGUUCUGCUGUAUACCUC [A45U U51A U54C A56G A65G U78C], 0.07.
For UAACAGGGGGCCACAGCAGAAGCGUUCACGUCGCAGCCCCUGUCAUAUUCUGGUGAAUCUGCGUAUUCUGCUGUAUAUCAC [G46U A64U U80A], the self-cleavage stood at 0.41.
UAACAGGGGGCCACAGCAGAAGCGUUCACGUCGCAGCCCCUGUCAGGUUCUGGUGUAUCUGCGGAUUCUGCUGUAUAUCCC [A47G A56U A64G U80C]: the self-cleavage came to 0.25.
The same measure for UAACAGGGGGCCACAGCAGAAGCGUUCACGUCGCAGCCCCUGUCUGAUCCUGGAGAAUCUGCGAAUUCUGCUGUAUAUCUC [A45U U49C U54A]: 0.04; for UAACAGGGGGCCACAGCAGAAGCGUUCACGUCGCAGCCCCUGUCAGGUUCUGGUGGAUCUGCGAAUUCCGCUGUAUAUCUC [A47G A56G U69C]: 0.46.
The same measure for UAACAGGGGGCCACAGCAGAAGCGUUCACGUCGCAGCCCCUGUCUGACUCUGGCGAAUCUGCGAAUUCUGCUGUAUAUCUC [A45U U48C U54C]: 0.16; for UAACAGGGGGCCACAGCAGAAGCGUUCACGUCGCAGCCCCUGUCUGAUUCUGGUGAAUCUGCGAAUUCCGCCGUAUAUCUC [A45U U69C U72C]: 0.23; for UAACAGGGGGCCACAGCAGAAGCGUUCACGUCGCAGCCCCUGUCAGGUUCUGGUGGAUCUGCGAAUUCUGCCGUAUAUCUC [A47G A56G U72C]: 1.03.
The same measure for UAACAGGGGGCCACAGCAGAAGCGUUCACGUCGCAGCCCCUGUCUGAUACUGGUGAAUCUGCGGAUUCUGCUGUAUAUCUC [A45U U49A A64G]: 0.15; for UAACAGGGGGCCACAGCAGAAGCGUUCACGUCGCAGCCCCUGUCUGAUUCUGGUGAACGUGCGAAUUCUGCUGUAUACCUC [A45U U58C C59G U78C]: 0.14; for UAACAGGGGGCCACAGCAGAAGCGUUCACGUCGCAGCCCCUGUCAGGUUCUGGUGGAUCUGCAAAUUCUGCUGUAUAUACC [A47G A56G G63A C79A U80C]: 1.07.
As to UAACAGGGGGCCACAGCAGAAGCGUUCACGUCGCAGCCCCUGUCUGAUUCUGGUGAAUCUGCGAAUACUGCUGUAUAUCAC [A45U U67A U80A], the self-cleavage was determined as 0.29.
With UAACAGGGGGCCACAGCAGAAGCGUUCACGUCGCAGCCCCUGUCUGAUUCCGGUGAAUCUGCGAAUUCUGCUGUAUAUCCC [A45U U51C U80C] the figure was 0.52; with UAACAGGGGGCCACAGCAGAAGCGUUCACGUCGCAGCCCCUGUCUGAUUCUGGAGAAUCUGCGGAUCCUGCUGUAUAUCCC [A45U U54A A64G U67C U80C], 0.23; with UAACAGGGGGCCACAGCAGAAGCGUUCACGUCGCAGCCCCUGUCUGAUUCUGGUGAAUCAGCGAAUUCUGCUGUAUAUCCC [A45U U60A U80C], 1.13.
As to UAACAGGGGGCCACAGCAGAAGCGUUCACGUCGCAGCCCCUGUCUGAUUCCGGUGAAUCUGCGAAUUCUGCCGUAUAUCUC [A45U U51C U72C], the self-cleavage turned out to be 0.53.
As to UAACAGGGGGCCACAGCAGAAGCGUUCACGUCGCAGCCCCUGUCUGAUUCAAGUGAAUCUGAGAAUUCUGCUGUAUAUCUC [A45U U51A G52A C62A], the self-cleavage worked out at 0.38.
